# PubChem BioAssay AID894 (National Center for Advancing Translational Sciences (NCATS), 2007)
# Several values for one entry are separate records, joined by “and”; a condition that tells them apart may be missing. Equal values may be shown once. Screen size: about 150,000 compounds; about 6,500 (4.3%) were called active. The shares of active, inactive and inconclusive entries below differ from those in the screen. Calls follow the shape of the dose curve; as a rule, active = well fitted inhibition curve with a large enough effect (not every such curve was filed as active); inconclusive = small, poorly fitted or top-dose-only effect, or another doubt; inactive = no such curve, though single readings can be large or run the other way. No potency is given beside an inconclusive call; the fits are too rough. Where a structure was tested more than once in an assay, its records may differ in their call.
# Target: 15-hydroxyprostaglandin dehydrogenase [NAD(+)] (Homo sapiens) (UniProt P15428)
# Assay: qHTS Assay for Inhibitors of HPGD (15-Hydroxyprostaglandin Dehydrogenase)
# Settings: purified HPGD, NADH fluorescence kinetic, PGE2 substrate; activity change, negative = inhibition: stronger effect = lower value
# Method in brief: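 20 nM HPGD preincubated 15 min at room temperature with compound in 50 mM Tris-HCl pH 8, 0.01% Tween 20. Started with 1 mM NAD+ and 30 uM prostaglandin E2; NADH fluorescence (360/450 nm) read 5 times over 30-s intervals, last minus first.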
# % is scaled to controls: 0 for no effect and ±100 for the full control effect; potency is read from the fitted curve at half-maximal effect; tags tell the direction and shape of the fitted curve.
# Chain of UniProt P15428 (P15428 whole entry, looked up): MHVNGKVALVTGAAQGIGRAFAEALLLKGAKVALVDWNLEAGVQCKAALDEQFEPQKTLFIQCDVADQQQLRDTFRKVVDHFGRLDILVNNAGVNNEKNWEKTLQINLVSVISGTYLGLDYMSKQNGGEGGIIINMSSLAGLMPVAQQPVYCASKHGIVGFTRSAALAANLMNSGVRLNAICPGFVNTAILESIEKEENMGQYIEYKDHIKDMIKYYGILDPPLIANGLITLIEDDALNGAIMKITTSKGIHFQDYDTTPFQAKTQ
SMILES,Potency,"activity change, negative = inhibition"
N#CC(C#N)=Cc1cc(O)c(O)c(O)c1,"inconclusive [inhibitor, partial curve]",–
CCCCn1c(N)c(C(=O)NCCN2CCOCC2)c2nc3ccccc3nc21,"inconclusive [inhibitor, partial curve]",–
C[C@@H]1O[C@@H](O[C@H]2CC[C@]3(C=O)C4CC[C@]5(C)[C@@H](C6=CC(=O)OC6)CC[C@]5(O)[C@@H]4CC[C@]3(O)C2)[C@H](O)[C@H](O)[C@H]1O (stereo not given in full),–,inactive: -1.53%
Cn1c(O)c(C=Nc2ccccc2Sc2ccccc2)c(=O)n(C)c1=O,"inconclusive [inhibitor, single point]",–
CC1=CC(=O)NP(=O)(Oc2ccc3ccccc3c2)N1 (stereo not given),active: 35.5 µM,–
O=C(NCNC(=O)N[C@H]1C(=O)NC(=O)N1CO)N[C@H]1C(=O)NC(=O)N1CO,–,inactive: -4.58%
CCc1c(C)c2ccc(OCC(N)=O)cc2oc1=O,"inconclusive [inhibitor, partial curve]",–
O=C1C2CC=CCC2C(=O)N1SC(Cl)(Cl)Cl (stereo not given),active: 7.94 µM and active: 7.08 µM,–
Cc1ccc(/C=C2/C(=O)NC(=O)N(CCc3ccc(F)cc3)C2=O)o1,active: 3.55 µM,–
CCCCCn1c(NC(=O)c2ccco2)c(C(=O)OCC)c2nc3ccccc3nc21,"inconclusive [inhibitor, single point]",–
CC/C(=N\N1CCN(C)CC1)c1c(O)[nH]c(=O)[nH]c1=O,–,inactive: -10.7%
S=c1[nH]nc(-c2ccco2)n1-c1cccc2ccccc12,"inconclusive [inhibitor, single point]",–
c1ccc(-c2nc(N3CCOCC3)s[n+]2-c2ccccc2)cc1,active: 10 µM,–
C=CCSc1nnc(NC(=O)c2ccc(Cl)nc2)s1,active: 28.2 µM,–
O=c1ccc2cc(OC3OC(CO)C(O)C(O)C3O)c(O)cc2o1 (stereo not given),"inconclusive [inhibitor, full curve]",–
Nc1ccccc1C(=O)OCC(=O)Nc1ccc(Br)cc1F,"inconclusive [inhibitor, partial curve]",–
CC(=O)N1CC[N+](C)(C)CC1,–,inactive: -21.2%
CCCNC(=O)c1c(N)n(Cc2ccco2)c2nc3ccccc3nc12,"inconclusive [inhibitor, partial curve]",–
CC[C@@H](CO)NC(=O)[C@@H]1C=C2c3cccc4c3c(cn4C)C[C@H]2N(C)C1,"inconclusive [inhibitor, partial curve]",–
O=c1[nH]c(=O)n(Cc2ccccc2)c(O)c1C=NCCN1CCOCC1,active: 31.6 µM,–
CC(C)[C@@]1(NC(=O)[C@@H]2C=C3c4cccc5[nH]cc(c45)C[C@H]3N(C)C2)O[C@@]2(O)[C@@H]3CCCN3C(=O)[C@H](Cc3ccccc3)N2C1=O,"inconclusive [inhibitor, partial curve]",–
Cc1[nH]n(-c2ccccc2)c(=O)c1C(c1cccc([N+](=O)[O-])c1O)c1c(C)[nH]n(-c2ccccc2)c1=O,active: 28.2 µM,–
O=C(c1cccn2c(=O)c3ccccc3nc12)N1CCC2(CC1)OCCO2,"inconclusive [inhibitor, partial curve]",–

SMILES,Potency,"activity change, negative = inhibition"
COc1ccccc1N1C(=O)NC(=O)/C(=C/c2ccc3c(c2)Cc2ccccc2-3)C1=O,"inconclusive [inhibitor, partial curve]",–
O=C(c1c[nH]c(C(=O)C(Cl)(Cl)Cl)c1)c1ccccc1Cl,active: 14.1 µM,–
NC(Cn1ccc(=O)[nH]c1=O)C(=O)O (stereo not given),–,inactive: -5.13%
OC(c1ccccc1)(c1ccccc1)C1CCCN1 (stereo not given),"inconclusive [inhibitor, single point]",–
CC1OC1P(=O)(O)O (stereo not given),–,inactive: -2.43% and inactive: -13.2%
Cc1ccc(/C=C2\C(=O)NC(=S)N(c3ccccc3F)C2=O)s1,active: 2.24 µM,–
CC1=NN(c2ccccc2)C(=O)/C1=C/c1c(O)[nH]c(=S)[nH]c1=O,active: 20 µM,–
c1ccc(Nc2cccc3ccccc23)cc1,"inconclusive [inhibitor, partial curve]",–
C[CH2][Hg][S]c1ccccc1C(=O)O,active: 0.282 µM,–
CCCCn1c(N)c(C(=O)OCC2CCCO2)c2nc3ccccc3nc21 (stereo not given),"inconclusive [inhibitor, partial curve]",–
CCN1C(=O)C(=C/C=C/c2ccco2)C(=O)N(CC)C1=S,active: 11.2 µM,–
Cc1cccc(N=Cc2c(O)n(-c3ccccc3C)c(=O)[nH]c2=O)c1,"inconclusive [inhibitor, partial curve]",–
N=C(N)SCc1ccc(Cl)c2ccccc12 (tested in a mixture with another compound),active: 4.47 µM,–
CCCCCCCC(=O)NC(Oc1ccccc1[N+](=O)[O-])C(Cl)(Cl)Cl (stereo not given),active: 10 µM,–
O=[N+]([O-])c1ccc(-c2[se]c3ccccc3c2I)cc1,–,inactive: -25.3%
Oc1c(Br)cc(Br)cc1Oc1ccc(Br)cc1Br,active: 7.08 µM,–
Oc1cc(Cl)c(Cl)cc1Cl,active: 5.62 µM,–
O=C1CCc2c(ccc3ccccc23)O1,"inconclusive [inhibitor, partial curve]",–
C/C=C(/C)C(=O)O[C@H]1C(C)=C2[C@H]([C@@H]1OC(=O)CCCCCCC)[C@@](C)(OC(C)=O)C[C@H](OC(=O)CCC)[C@@]1(O)[C@H]2OC(=O)[C@@]1(C)O,"inconclusive [inhibitor, single point]",–
CCCCC(CC)COC(=O)c1ccc(C(=O)OCC(CC)CCCC)c(C(=O)OCC(CC)CCCC)c1 (stereo not given),–,inactive: -5.9%
CS(=O)(=O)NCc1nnc2n1-c1ccc(Cl)cc1C(c1ccccc1)=NC2,"inconclusive [inhibitor, partial curve]",–
CCCCCC[C@H]1C(=O)O[C@H](C)[C@H](NC(=O)c2cccc(NC=O)c2O)C(=O)O[C@@H](C)[C@@H]1OC(=O)CC(C)C,"inconclusive [inhibitor, partial curve]",–
